{"source": "paper PMC6919601", "about": "“Identification of Plasmodium dipeptidyl aminopeptidase allosteric inhibitors by high throughput screening” (PLoS ONE, 2019)", "note": "In all, about 110,000 compounds went through this assay and about 230 (0.21%) showed an effect of 50% or more. The list shows a part of the results.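 Further: 30 min substrate incubation versus DMSO and 10 µM JCP410 controls.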"}
{"target": "DPAP1 (Plasmodium falciparum, UniProt Q8IIJ9)", "sequence (Q8IIJ9 whole entry, looked up)": "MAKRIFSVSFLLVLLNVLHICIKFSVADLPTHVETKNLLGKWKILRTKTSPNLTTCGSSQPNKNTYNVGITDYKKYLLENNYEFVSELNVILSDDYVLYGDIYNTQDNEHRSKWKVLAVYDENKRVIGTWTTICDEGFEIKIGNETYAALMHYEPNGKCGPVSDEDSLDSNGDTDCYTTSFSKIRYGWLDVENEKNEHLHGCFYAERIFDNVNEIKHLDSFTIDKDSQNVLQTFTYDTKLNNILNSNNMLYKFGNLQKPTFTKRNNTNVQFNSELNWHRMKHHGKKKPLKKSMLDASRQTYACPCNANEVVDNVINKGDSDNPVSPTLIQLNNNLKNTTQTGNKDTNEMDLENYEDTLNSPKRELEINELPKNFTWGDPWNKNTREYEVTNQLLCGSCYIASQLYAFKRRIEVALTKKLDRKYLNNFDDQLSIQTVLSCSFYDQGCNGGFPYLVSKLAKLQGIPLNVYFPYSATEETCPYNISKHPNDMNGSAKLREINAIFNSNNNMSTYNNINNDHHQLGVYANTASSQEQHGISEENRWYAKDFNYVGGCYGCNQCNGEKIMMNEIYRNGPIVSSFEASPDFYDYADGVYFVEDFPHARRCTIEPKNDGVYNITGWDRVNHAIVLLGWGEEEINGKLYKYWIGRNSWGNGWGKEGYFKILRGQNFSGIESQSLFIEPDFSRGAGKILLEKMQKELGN", "test": "primary screen, percent inhibition; read by cleavage of a fluorogenic dipeptide substrate; higher = more effect of the substance", "set-up": "species or system P. falciparum D10 trophozoite lysates; single well", "units": {"% Inhibition @ 10 uM": "%"}}
{"smiles": "CN(C)c1ccc(CN2CCC3(C=Cc4ccccc43)CC2)cc1", "% Inhibition @ 10 uM": 7.87}
{"smiles": "CC(=O)c1ccc(NC2=NC(C)(C)Cc3cc(C)c(C)cc32)cc1", "% Inhibition @ 10 uM": -8.38}
{"smiles": "O=C(Nc1cccnc1)c1cc2c(O)nc3ccccc3c2s1", "% Inhibition @ 10 uM": -0.499}
{"smiles": "CC1CCCC(NC(=O)CN2N=C(c3ccccc3)CCC2=O)C1C", "note": "(stereo not shown)", "% Inhibition @ 10 uM": -2.99}
{"smiles": "CCOc1cc(CN)c(-n2cccc2)cc1OCC", "% Inhibition @ 10 uM": -0.703}
{"smiles": "Nc1nc(SCC(=O)NCCCO)nc2sc3c(c12)CCCC3", "% Inhibition @ 10 uM": 1.64}
{"smiles": "Cc1ccc(C(=O)C2=C(O)C(=O)N(CC3CCCO3)C2c2cccc(Cl)c2)o1", "note": "(stereo not shown)", "% Inhibition @ 10 uM": -9.98}
{"smiles": "Oc1c2c(nc3ccccc13)OCCC2", "% Inhibition @ 10 uM": -1.98}
{"smiles": "O=C(NCc1ccccc1)c1ccccc1NS(=O)(=O)c1ccc(Br)s1", "% Inhibition @ 10 uM": -5.49}
{"smiles": "Cc1ccsc1C(C#N)NC(=O)[C@@H](NC(=O)OCc1ccccc1)C1CCCCC1", "note": "(stereo partly shown)", "% Inhibition @ 10 uM": -1.61}
{"smiles": "COc1cc(OC)c(OC)cc1CN1CCN(c2cccc(C(F)(F)F)c2)CC1", "% Inhibition @ 10 uM": -1.86}
{"smiles": "CCOCCO/C(O)=C1/C(C)=NC2=C(C(=O)CCC2)C1c1ccc(-c2ccccc2)cc1", "note": "(stereo not shown)", "% Inhibition @ 10 uM": 4.66}
{"smiles": "O=C(Cn1c(=O)c2ccccc2n2nncc12)NCc1ccccc1", "% Inhibition @ 10 uM": -1.01}
{"smiles": "CCOC(=O)C1=C(C)OC(N)=C(C#N)C1c1ccccc1OCC", "note": "(stereo not shown)", "% Inhibition @ 10 uM": -2.15}
{"smiles": "N#Cc1c(N)ccn(Cc2ccccc2)c1=O", "% Inhibition @ 10 uM": -4.31}
{"smiles": "Cc1ccc2sc(-c3ccc(NC(=O)C(C)(C)C)cc3)nc2c1", "% Inhibition @ 10 uM": 2.76}
{"smiles": "N#Cc1cccc(S(=O)(=O)n2nc(-c3ccc(Cl)cc3)cc2N)c1", "% Inhibition @ 10 uM": 0.66}
{"smiles": "COc1ccc(-c2cnc(OC(C)(C)C)nc2OC(C)(C)C)cc1OC", "% Inhibition @ 10 uM": -1.04}
{"smiles": "c1ccc(-c2cc3c(N4CCCC4)ncnc3s2)cc1", "% Inhibition @ 10 uM": 4.89}
{"smiles": "Cc1ccc2nc(C)c3cc(C)oc3c2c1", "% Inhibition @ 10 uM": 2.05}
{"smiles": "O=C(Cn1cnc2onc(-c3ccc(F)cc3)c2c1=O)NCc1ccc2c(c1)OCO2", "% Inhibition @ 10 uM": 2.75}
{"smiles": "O=C(Nc1nn2c(-c3ccccc3)nnc2s1)C1CCCCC1", "% Inhibition @ 10 uM": 2.53}
{"smiles": "Cc1nn(-c2ccc(Cl)cc2)c2c(=O)c(I)cccc12", "% Inhibition @ 10 uM": -0.994}
{"smiles": "CCOc1ccccc1NC(=O)c1cnn(CC)c1", "% Inhibition @ 10 uM": -10.6}
{"smiles": "COc1ccc(C2C(C#N)=C(N)OC3=C2C(=O)CCC3)cc1O", "note": "(stereo not shown)", "% Inhibition @ 10 uM": -3.62}
{"smiles": "CC(C)C[C@H](NC(=O)OCc1ccccc1)C(=O)N[C@H]1CCN(C(=O)[C@H](CC(C)C)NC(=O)c2ccc(-c3cnc(Nc4ccncc4)s3)cc2)C1", "% Inhibition @ 10 uM": -3.04}
{"smiles": "C1=C(c2ccccc2)CCN(Cc2nnc(-c3ccc4c(c3)OCO4)o2)C1", "% Inhibition @ 10 uM": 3.5}
{"smiles": "CCCCCC1CCC(c2ccc(C(=O)Nc3nc4ccccc4n3C)cc2)CC1", "note": "(stereo not shown)", "% Inhibition @ 10 uM": -0.803}
{"smiles": "COc1ccc(C2=N/C(=C/c3cc4ccccc4nc3N3CCOCC3)C(=O)O2)cc1", "% Inhibition @ 10 uM": -5.15}
{"smiles": "Clc1cccc(-c2nnc3sc(-c4ccncc4)nn23)c1", "% Inhibition @ 10 uM": -5.91}
{"smiles": "CCCCc1[nH]nc2c1C(c1cc(Br)cs1)C(C#N)=C(N)O2", "note": "(stereo not shown)", "% Inhibition @ 10 uM": 4.09}
{"smiles": "O=C(NC1C2CC3CC(C2)CC1C3)c1cc2ccccc2o1", "note": "(stereo not shown)", "% Inhibition @ 10 uM": -8.2}
{"smiles": "O=C(CN1CCCC1)Nc1c2c(nc3ccccc13)CCC2", "% Inhibition @ 10 uM": -1.91}
{"smiles": "CC(C(=O)Nc1nccs1)c1cccc(C(=O)c2ccccc2)c1", "note": "(stereo not shown)", "% Inhibition @ 10 uM": -1.52}
{"smiles": "Cc1c2cnn(CC(=O)NCc3ccccc3Cl)c(=O)c2c(C)n1Cc1ccccc1", "% Inhibition @ 10 uM": 2.84}
{"smiles": "C=CCNC(=O)c1cc(-c2ccc(C)s2)nc2ccccc12", "% Inhibition @ 10 uM": 0.163}
{"smiles": "O=C(CSc1nnnn1-c1cccc2ccccc12)NC(c1ccccc1)c1ccccc1", "% Inhibition @ 10 uM": 0.0719}
{"smiles": "CCOc1ccc(C2=NN3C(C2)c2cccc(OC)c2OC32CCC(C)CC2)cc1", "note": "(stereo not shown)", "% Inhibition @ 10 uM": 35.1}
{"smiles": "CCN(Cc1ccccc1)C(=O)Nc1cn(C)c(=O)c2ccccc12", "% Inhibition @ 10 uM": 2.01}
{"smiles": "O=C1c2ccccc2NC(c2cccc(O)c2)N1Cc1ccco1", "note": "(stereo not shown)", "% Inhibition @ 10 uM": 2.36}
{"smiles": "CC(=O)CCc1oc2ccc(C)cc2c1-c1ccc(C)cc1", "% Inhibition @ 10 uM": -3.14}
{"smiles": "Cc1cc2nc3c(=O)n(C)c(=O)n(C)c3nc2cc1N", "% Inhibition @ 10 uM": -0.807}
{"smiles": "COc1cc(OC)cc(C(=O)N2CCN(Cc3ccccc3C)CC2)c1", "% Inhibition @ 10 uM": 0.635}
{"smiles": "CC(CCc1ccco1)NC(=O)Cn1ncc2c(Cl)cccc21", "note": "(stereo not shown)", "% Inhibition @ 10 uM": 0.596}
{"smiles": "CC(C)C[C@H](NC(=O)c1cccc(OCc2ccccc2)c1)C(=O)NCC#N", "% Inhibition @ 10 uM": 4.63}
{"smiles": "Cc1cc(N)c2cc(Br)ccc2n1", "% Inhibition @ 10 uM": -4.3}
{"smiles": "O=C1c2ccccc2NC(c2ccc3c(c2)OCO3)N1c1ccc(F)cc1", "note": "(stereo not shown)", "% Inhibition @ 10 uM": 5.04}
{"smiles": "COc1ccc(S(=O)(=O)N2CCN(c3ncccn3)CC2)cc1", "% Inhibition @ 10 uM": -2.69}
{"smiles": "COc1cccc(C(=O)Nc2ccccc2F)c1", "% Inhibition @ 10 uM": 5.29}
{"smiles": "CN(C)CC#CCC(O)(c1ccccc1)C1CCCCC1", "note": "(stereo not shown)", "% Inhibition @ 10 uM": -4.43}
{"smiles": "CC(C)C[C@H](NC(=O)c1ccc(-c2csc(-c3cccnc3)n2)cc1)C(=O)N[C@@H]1CCN(Cc2ccccc2)C1", "% Inhibition @ 10 uM": 5.05}
{"smiles": "COc1cccc(C2=CC(c3ccc(OC)c(OC)c3OC)n3nnnc3N2)c1", "note": "(stereo not shown)", "% Inhibition @ 10 uM": -0.125}
{"smiles": "CC(C)c1ccc(-n2cccc2)cc1", "% Inhibition @ 10 uM": -2.17}
{"smiles": "Cc1cccc(-n2ncc3c(N4CCC(C)CC4)ncnc32)c1", "% Inhibition @ 10 uM": 6.44}
{"smiles": "COc1cc(/C=C2/C(=N)N3OC(C)=CC3=NC2=O)cc(OC)c1OCCOc1ccccc1Cl", "% Inhibition @ 10 uM": -1.43}
{"smiles": "CC(C)N(C(=O)/C=C/c1cccc([N+](=O)[O-])c1)C(C)C", "% Inhibition @ 10 uM": 7.66}
{"smiles": "O=C(Nc1ccc(Cl)c(Cl)c1)c1ccccc1NC(=O)C1CC=CCC1C(=O)O", "note": "(stereo not shown)", "% Inhibition @ 10 uM": -0.95}
{"smiles": "Cc1csc2nc(CNC(=O)C3CCCCC3)cn12", "% Inhibition @ 10 uM": -6.09}
{"smiles": "COc1cccc(CN2CCN(C(=O)c3ccc(-c4ccccc4)cc3)CC2)c1", "% Inhibition @ 10 uM": 0.131}
{"smiles": "CN1C2=C(C(=O)CC(C)(C)C2)C(c2cc(Br)ccc2O)C2=C1CC(C)(C)CC2=O", "% Inhibition @ 10 uM": -2.85}
{"smiles": "CCOc1ccc(C2=CC(=O)C(CC(=O)O)CC2)cc1", "note": "(stereo not shown)", "% Inhibition @ 10 uM": 1.63}
{"smiles": "C=CCO/C(O)=C1/C(C)=Nc2ncnn2C1c1ccc(Br)cc1", "note": "(stereo not shown)", "% Inhibition @ 10 uM": -1.62}
{"smiles": "CCCC1=C(C(=O)OCC)C(c2c(F)cccc2Cl)NC(=O)N1C", "note": "(stereo not shown)", "% Inhibition @ 10 uM": -1.6}
{"smiles": "Cc1ccc(-c2nc(CS(=O)(=O)CC(=O)N3CCN(C)CC3)c(C)o2)cc1", "% Inhibition @ 10 uM": -3.7}
